The IC50 comes from the fitted curve, where viability falls to half of the control; fits outside the tested doses are given as limits. AUC sums up the same curve from the lowest dose to the 256-fold higher top dose: 1 means no effect, lower means more sensitive. For some assays here: The top dose, if marked as inferred, was calculated from the reported fits. For some assays here: An entry number marks a drug with two screens in the source, which often give different values.
Key:
Assay in all cases: Viability of human cancer cell lines after 72 h of drug (GDSC screen)
Afatinib = compound: CN(C)C/C=C/C(=O)Nc1cc2c(Nc3ccc(F)c(Cl)c3)ncnc2cc1O[C@H]1CCOC1 [Afatinib]
Description: (§1)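 Human cancer cell lines in 384-well plates, medium with 10% serum, drug for 72 h over a 256-fold dose range (nine 2-fold or five 4-fold steps up to the top dose). Adherent lines were fixed and stained with the nucleic acid dye Syto60, suspension lines read with resazurin; signal relative to control wells, capped at 0 and 100%. One two-parameter sigmoid per drug and line, fitted in a mixed model over all curves with the slope shared within a line.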

PF-562271 = compound: CN(c1ncccc1CNc1nc(Nc2ccc3c(c2)CC(=O)N3)ncc1C(F)(F)F)S(C)(=O)=O [PF-562271]; conditions: top dose 2.56 µM; top dose inferred
Description: as §1

XMD13-2 = compound: O=C(NC1CC1)c1cccc(-c2ccc3c(NC(=O)C4CC4)n[nH]c3c2)c1 [XMD13-2]; conditions: top dose 10.24 µM; top dose inferred
Description: as §1

SNX-2112 = compound: CC1(C)CC(=O)c2c(C(F)(F)F)nn(-c3ccc(C(N)=O)c(N[C@H]4CC[C@H](O)CC4)c3)c2C1 [SNX-2112]; conditions: top dose 2.56 µM
Description: as §1

[1] = top dose 10 µM, screen: GDSC drug entry 1377, top dose inferred
[2] = top dose 0.5 µM, screen: GDSC drug entry 1032

| Cell Line | AUC (Afatinib; [1]) | IC50 (Afatinib; [1]) [nM] | AUC (PF-562271) | IC50 (PF-562271) [nM] | AUC (XMD13-2) | IC50 (XMD13-2) [nM] | AUC (SNX-2112) | IC50 (SNX-2112) [nM] | AUC (Afatinib; [2]) | IC50 (Afatinib; [2]) [nM] |
| --- | --- | --- | --- | --- | --- | --- | --- | --- | --- | --- |
| HSC-3 (head and neck, adherent) | 0.22 | 111 | 0.911 | > 2560 | 0.979 | > 10200 | 0.478 | 140 | – | – |
| HT-144 (melanoma, adherent) | 0.968 | > 10000 | 0.869 | > 2560 | 0.984 | > 10200 | 0.969 | > 2560 | – | – |
| HTC-C3 (thyroid, adherent) | 0.947 | > 10000 | 0.886 | > 2560 | 0.955 | > 10200 | 0.794 | 1340 | – | – |
| HeLa (cervix, adherent) | 0.987 | > 10000 | 0.948 | > 2560 | 0.942 | > 10200 | 0.874 | 2290 | 0.989 | > 500 |
| Hs-445 (Hodgkin lymphoma, suspension) | 0.985 | > 10000 | 0.963 | > 2560 | 0.847 | 6710 | 0.276 | 39.2 | – | – |
| Hs-578-T (breast, adherent) | 0.981 | > 10000 | 0.987 | > 2560 | 0.985 | > 10200 | 0.963 | > 2560 | 0.985 | > 500 |
| IST-MES1 (mesothelioma, adherent) | 0.974 | > 10000 | 0.962 | > 2560 | 0.956 | > 10200 | 0.916 | > 2560 | – | – |
| J82 (bladder, adherent) | 0.966 | > 10000 | 0.92 | > 2560 | 0.977 | > 10200 | 0.912 | > 2560 | – | – |
| JAR (urogenital system, adherent) | 0.963 | > 10000 | 0.982 | > 2560 | 0.927 | > 10200 | 0.811 | 1330 | – | – |
| KALS-1 (glioma, adherent) | 0.96 | > 10000 | 0.936 | > 2560 | 0.81 | 8030 | 0.598 | 328 | – | – |
| KG-1 (acute myeloid leukaemia, suspension) | 0.973 | > 10000 | 0.958 | > 2560 | 0.715 | 2390 | 0.445 | 115 | – | – |
| KOSC-2 (head and neck, adherent) | 0.814 | 5770 | 0.816 | 1500 | 0.974 | > 10200 | 0.942 | > 2560 | – | – |
| KP-4 (pancreas, adherent) | 0.986 | > 10000 | 0.887 | > 2560 | 0.855 | 7670 | 0.681 | 501 | – | – |
| KYSE-270 (oesophagus, adherent) | 0.883 | 7980 | 0.801 | 1040 | 0.969 | > 10200 | 0.393 | 85.3 | – | – |
| L-1236 (Hodgkin lymphoma, suspension) | 0.992 | > 10000 | 0.969 | > 2560 | 0.981 | > 10200 | 0.34 | 62.4 | 0.992 | > 500 |
| LB996-RCC (kidney, adherent) | 0.783 | 4960 | 0.962 | > 2560 | 0.981 | > 10200 | 0.576 | 267 | – | – |
| LC-2-ad (lung adenocarcinoma, adherent) | 0.964 | > 10000 | 0.854 | 2090 | 0.84 | 7340 | 0.548 | 217 | – | – |
| LN-229 (glioma, adherent) | 0.952 | > 10000 | 0.939 | > 2560 | 0.985 | > 10200 | 0.82 | 1470 | 0.966 | > 500 |
| LNCaP-Clone-FGC (prostate, adherent) | 0.976 | > 10000 | 0.962 | > 2560 | 0.888 | > 10200 | 0.617 | 353 | – | – |
| LOXIMVI (melanoma, semi-adherent) | 0.943 | > 10000 | 0.963 | > 2560 | 0.971 | > 10200 | 0.446 | 116 | – | – |
| LS-411N (large intestine, adherent) | 0.973 | > 10000 | 0.948 | > 2560 | 0.941 | > 10200 | 0.321 | 45 | 0.955 | > 500 |
| LU-99A (large cell lung carcinoma, adherent) | 0.986 | > 10000 | 0.96 | > 2560 | 0.979 | > 10200 | 0.701 | 586 | – | – |
| MDA-MB-157 (breast, adherent) | 0.967 | > 10000 | 0.987 | > 2560 | 0.979 | > 10200 | 0.983 | > 2560 | – | – |

| Cell Line | AUC (Afatinib; [1]) | IC50 (Afatinib; [1]) [nM] | AUC (PF-562271) | IC50 (PF-562271) [nM] | AUC (XMD13-2) | IC50 (XMD13-2) [nM] | AUC (SNX-2112) | IC50 (SNX-2112) [nM] | AUC (Afatinib; [2]) | IC50 (Afatinib; [2]) [nM] |
| --- | --- | --- | --- | --- | --- | --- | --- | --- | --- | --- |
| MDA-MB-175-VII (breast, adherent) | 0.394 | 309 | 0.944 | > 2560 | 0.983 | > 10200 | 0.675 | 520 | 0.55 | 43.5 |
| MDA-MB-436 (breast, adherent) | 0.926 | > 10000 | 0.971 | > 2560 | 0.971 | > 10200 | 0.835 | 2330 | 0.97 | > 500 |
| MDA-MB-453 (breast, adherent) | 0.872 | > 10000 | 0.95 | > 2560 | 0.842 | 8400 | 0.32 | 47.3 | 0.967 | > 500 |
| MDA-MB-468 (breast, adherent) | 0.856 | 7560 | 0.874 | 2340 | 0.871 | 9020 | 0.496 | 156 | 0.844 | 337 |
| ME-180 (cervix, adherent) | 0.793 | 4790 | 0.978 | > 2560 | 0.788 | 4710 | 0.505 | 165 | 0.83 | 332 |
| MES-SA (uterus, adherent) | 0.978 | > 10000 | 0.845 | 1460 | 0.965 | > 10200 | 0.99 | > 2560 | 0.992 | > 500 |
| MFE-319 (endometrium, adherent) | 0.835 | 6300 | 0.873 | 2340 | 0.938 | > 10200 | 0.864 | 2130 | – | – |
| MFH-ino (soft tissue, adherent) | 0.962 | > 10000 | 0.868 | > 2560 | 0.969 | > 10200 | 0.52 | 183 | 0.945 | > 500 |
| MKN1 (stomach, adherent) | 0.897 | > 10000 | 0.887 | > 2560 | 0.951 | > 10200 | 0.723 | 713 | – | – |
| ML-1 (thyroid, adherent) | 0.962 | > 10000 | 0.841 | 2230 | 0.947 | > 10200 | 0.789 | 1340 | – | – |
| MZ7-mel (melanoma, adherent) | 0.985 | > 10000 | 0.946 | > 2560 | 0.973 | > 10200 | 0.572 | 253 | – | – |
| NB7 (neuroblastoma, adherent) | 0.873 | > 10000 | 0.878 | > 2560 | 0.931 | > 10200 | 0.625 | 359 | – | – |
| NCI-H23 (lung adenocarcinoma, adherent) | 0.975 | > 10000 | 0.982 | > 2560 | 0.982 | > 10200 | 0.758 | 883 | 0.98 | > 500 |
| NCI-H196 (small cell lung carcinoma, adherent) | 0.987 | > 10000 | 0.985 | > 2560 | 0.988 | > 10200 | 0.77 | 1020 | – | – |
| NCI-H226 (lung squamous cell carcinoma, adherent) | 0.969 | > 10000 | 0.927 | > 2560 | 0.953 | > 10200 | 0.357 | 63 | 0.987 | > 500 |
| NCI-H510A (small cell lung carcinoma, semi-adherent) | – | – | 0.902 | > 2560 | 0.98 | > 10200 | 0.715 | 611 | 0.98 | > 500 |
| NCI-H522 (lung adenocarcinoma, adherent) | 0.848 | 9650 | 0.949 | > 2560 | 0.934 | > 10200 | 0.714 | 729 | – | – |
| NCI-H661 (large cell lung carcinoma, adherent) | 0.888 | > 10000 | 0.944 | > 2560 | 0.895 | > 10200 | 0.795 | 1480 | 0.874 | > 500 |
| NCI-H838 (lung adenocarcinoma, adherent) | 0.97 | > 10000 | 0.901 | > 2560 | 0.976 | > 10200 | 0.605 | 314 | 0.985 | > 500 |
| NCI-H1299 (large cell lung carcinoma, adherent) | 0.861 | > 10000 | 0.924 | > 2560 | 0.93 | > 10200 | 0.815 | 1820 | – | – |
| NCI-H1355 (lung adenocarcinoma, adherent) | 0.856 | > 10000 | 0.951 | > 2560 | 0.971 | > 10200 | 0.963 | > 2560 | – | – |
| NCI-H1573 (lung adenocarcinoma, adherent) | 0.978 | > 10000 | 0.991 | > 2560 | 0.99 | > 10200 | 0.857 | 1980 | – | – |

From the supplement of paper PMC4967469
